Some of the results follow.
Biological target: T1, OsWOX13 (Oryza sativa, UniProt Q5QMM3 1-267)
T1 sequence: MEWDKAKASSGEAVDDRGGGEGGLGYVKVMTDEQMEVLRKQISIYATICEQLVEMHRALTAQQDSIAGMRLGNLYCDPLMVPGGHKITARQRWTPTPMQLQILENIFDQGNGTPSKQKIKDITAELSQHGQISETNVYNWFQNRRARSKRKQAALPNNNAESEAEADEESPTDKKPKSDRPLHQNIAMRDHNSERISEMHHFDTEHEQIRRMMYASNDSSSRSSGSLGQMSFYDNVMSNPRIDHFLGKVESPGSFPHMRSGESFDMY
Assay: protein-binding microarray (RPBM); PBS, 2% BSA, 51.3 ng/ul salmon testes DNA, 50 uM zinc acetate, 200 nM TF, 25 C, 1 h; high values mean tight binding
Conditions: protein: recombinant; tags: N-terminal polyhistidine and DsRed monomer fusion (pET32a); label: CyDye5-dUTP incorporated in the synthesized complementary strand; 3' TTTTT single-stranded linker to array surface; dsDNA, one strand shown
Outline: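 The binding signal is fluorescence intensity per feature, in arbitrary units, read on an Axon 4000B scanner. Polyhistidine- and DsRed-tagged transcription factors (N-terminal fusions) from E. coli BL21-CodonPlus were purified on Ni–NTA and applied at 200 nM for 1 h at 25 °C to a double-stranded, BSA-blocked custom Agilent array in buffer with 50 µM zinc acetate.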

In order of rising binding signal:
1. AGTGGCTTAATTTGGACCCAGCAATTTCAGCAAGCCGACTCGGAGTCACCTAGTGCAG  3270 fluorescence intensity (a.u.)
2. TGAGTGATTTTATGCATTTGATACCATGGTGCCCATATATCGGAGTCACCTAGTGCAG  3370 fluorescence intensity (a.u.)
3. GTGTTAATGACGGCAAAGTCTCTGTGTGTAACTTTGTATACGGAGTCACCTAGTGCAG  3420 fluorescence intensity (a.u.)
4. CTATGAATTGATGCTGTCGTTGAATGCTGGGTAAACAACGCGGAGTCACCTAGTGCAG  3920 fluorescence intensity (a.u.)
5. ATTAATCCTAATTACTCCTAACCATTAATCCAACTATAAACGGAGTCACCTAGTGCAG  4260 fluorescence intensity (a.u.)
6. TCTGAATCATTGACATTGTTCAGTGCTCCATTTGTCTGTTCGGAGTCACCTAGTGCAG  4300 fluorescence intensity (a.u.)
7. TTTCAATTTAAATGCTGCAAATATTGTGAAACCTGAAGATCGGAGTCACCTAGTGCAG  4450 fluorescence intensity (a.u.)
8. GTAATTGCGGCCCATTAACCTAAATGGGCCGATCGAGTGGCGGAGTCACCTAGTGCAG  4580 fluorescence intensity (a.u.)
9. CACAAACAACTTAAACTAGACTAACTAGACAAACAAGATGCGGAGTCACCTAGTGCAG  4600 fluorescence intensity (a.u.)
10. TATGATGACGACGATACCATCAAGCTTCATTAATTGCACTCGGAGTCACCTAGTGCAG  4960 fluorescence intensity (a.u.)
11. CCTTAATTACCCCGACTAGACCCCTATCAAGGATCCAAAGCGGAGTCACCTAGTGCAG  5140 fluorescence intensity (a.u.)
12. GCGACCTGATGGATGATGATCGATCGAACCTTCCTGGGTACGGAGTCACCTAGTGCAG  5270 fluorescence intensity (a.u.)
13. CGACTAAATAGAGAGATCACCGCGTCCATCGGATTGATCGCGGAGTCACCTAGTGCAG  5290 fluorescence intensity (a.u.)
14. ATCCTCAAATTACTTTCCATGTATAATAATTTGAAGATGTCGGAGTCACCTAGTGCAG  5640 fluorescence intensity (a.u.)
15. ATTTAGACTGCACAAATGCAGGGCCACATGTGTCACGCCCCGGAGTCACCTAGTGCAG  6010 fluorescence intensity (a.u.)
16. TCCGGATCTGATTTATTCTTTTCTCTGGAGTTAAGCTGACCGGAGTCACCTAGTGCAG  6330 fluorescence intensity (a.u.)
17. CGTTGCAATTACCATCCTCCTCTGACTGGAAATATCAACGCGGAGTCACCTAGTGCAG  6930 fluorescence intensity (a.u.)
18. AGGATTGTTTCTGATGATTTGGGCCCGGAAAGACATAAGGCGGAGTCACCTAGTGCAG  7510 fluorescence intensity (a.u.)
19. TGCCCAATCACACTTGGCTCTAATTCTGCGACTCATCCTTCGGAGTCACCTAGTGCAG  7510 fluorescence intensity (a.u.)
20. ACTAATTTTATAACTCGCCCGGAAATCGTGTGACGGATTTCGGAGTCACCTAGTGCAG  8160 fluorescence intensity (a.u.)
21. GAAGATTGAGTACAGGAACGCAAAATGAGAAAATCATTAGCGGAGTCACCTAGTGCAG  8910 fluorescence intensity (a.u.)
22. ATAATTAACTACTCCCTCCGTTTCATAATATAAGAATTTCCGGAGTCACCTAGTGCAG  9330 fluorescence intensity (a.u.)
23. GGTGATGGTGTTTTGATGAAGGATTGCTCGACCTAACGGTCGGAGTCACCTAGTGCAG  9540 fluorescence intensity (a.u.)
24. TTTGATTGTTGTGCTTTTGCTTCTGTGGGTCAAAACCCTGCGGAGTCACCTAGTGCAG  9560 fluorescence intensity (a.u.)
25. AATCTTATTGATTTAGGGCATATATCTGGGAAGGTTGCTACGGAGTCACCTAGTGCAG  12200 fluorescence intensity (a.u.)
26. GTGATCGGATTGTAGATTGGATAATTAGTTTAACAGAAAACGGAGTCACCTAGTGCAG  12700 fluorescence intensity (a.u.)
27. CATCCAATTATGTCACAACAAATTATATACGAGAGTTTGACGGAGTCACCTAGTGCAG  13300 fluorescence intensity (a.u.)
28. TTAAATTTAACATGTCACGTTAAATTTAAGAAAATTTTGACGGAGTCACCTAGTGCAG  16700 fluorescence intensity (a.u.)
29. GCTGATGGATCTTGTAATCGTACCTGTGAAGTTTGTGCTACGGAGTCACCTAGTGCAG  17000 fluorescence intensity (a.u.)
30. CCCTTGATAGTTTGATATTGGTAGAGATATTATTTTCCCTCGGAGTCACCTAGTGCAG  17100 fluorescence intensity (a.u.)
31. CACGCCTTAATTAATTCTATGAATTGGTTGAACACAGTAACGGAGTCACCTAGTGCAG  17800 fluorescence intensity (a.u.)
32. ATAATTGAAACGATGCCATCAGAATACGTATGAAATTAGACGGAGTCACCTAGTGCAG  22300 fluorescence intensity (a.u.)
33. GCCGTGATGAAGTGATTGGGTGGCTGCAACAGCTAAAATGCGGAGTCACCTAGTGCAG  26100 fluorescence intensity (a.u.)
34. TACCTAATTAATTTTGCTCCGTTTTGCGTGCGTGGAGTATCGGAGTCACCTAGTGCAG  26100 fluorescence intensity (a.u.)
35. ATTGATCAAATGGACAGGATTGATATGTGTATATTTCTATCGGAGTCACCTAGTGCAG  27200 fluorescence intensity (a.u.)
36. TATTAATTATTCTAAATTTAAATTGTGGTTAAGATGATTTCGGAGTCACCTAGTGCAG  28700 fluorescence intensity (a.u.)
37. AAGTCGTTGATTAATTTGAGGGAATTATATATGGATCGGTCGGAGTCACCTAGTGCAG  32900 fluorescence intensity (a.u.)
38. GTTTAATTATTCCCTGCAATTTTGTTAATTAATCAGACTTCGGAGTCACCTAGTGCAG  34300 fluorescence intensity (a.u.)
39. TAAATTGTAATTTGTAATAAAACAGTAAATGAACCTTCTCCGGAGTCACCTAGTGCAG  36900 fluorescence intensity (a.u.)
40. CTAATTTGATTGGGTATCTGATTCGATCTATACATCAAATCGGAGTCACCTAGTGCAG  45700 fluorescence intensity (a.u.)
41. ATACTTAATTAATGATACGATAATTGAATTTATTCTCTCCCGGAGTCACCTAGTGCAG  49900 fluorescence intensity (a.u.)
42. CCATTAATTATGTTGGACATAATTAAGAGAATTTGCTAAACGGAGTCACCTAGTGCAG  52300 fluorescence intensity (a.u.)
